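The compound was tested at five concentrations on cells cultured in 96-well plates, with a 48-hour exposure period. Definition used: TGI = concentration required for complete inhibition of growth.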 For part of its entries the source gives two or more results. Only these are listed. An entry can have further records. A record mostly stands for its own series of concentrations, which the source does not state; a value can be the end of its range.
Key:
Assay in all cases: NCI anticancer screen, dose series, 48 h
HL-60(TB) leukemia = system: HL-60(TB) leukemia
RPMI-8226 leukemia = system: RPMI-8226 leukemia
SR leukemia = system: SR leukemia
A498 renal = system: A498 renal
CCRF-CEM leukemia = system: CCRF-CEM leukemia

In the case of COc1cc2cc(C(=O)N3CC(COS(C)(=O)=O)c4ccc(O)cc43)[nH]c2c(OC)c1OC (stereo unspecified), the TGI (HL-60(TB) leukemia) is reported as 3.59 nM and 106 nM, the TGI (RPMI-8226 leukemia) is reported as 0.217 nM and 545 nM and the TGI (SR leukemia) is reported as 167 nM and > 100 µM.
CC1=C2C(=CO[C@H](C)[C@H]2C)C(=O)C(C(=O)O)=C1O was tested, and the TGI (A498 renal) was 64.1 µM and 2.07 µM.
With CC(C)=CCC(OC(=O)C=C(C)C)C1=CC(=O)c2c(O)ccc(O)c2C1=O (stereo unspecified) the TGI (CCRF-CEM leukemia) was > 100 µM and 1.05 µM and the TGI (RPMI-8226 leukemia) was > 100 µM and 1.76 µM.

From PubChem BioAssay (NCI)
